This passage reports survival results from PubChem BioAssay AID463173 (ICCB-Longwood Screening Facility, Harvard Medical School, 2010).

Hit rate of the full screen: of about 52,000 compounds, about 4,300 (8.3%) were called active. Cut-off read from the data, not from the text of the source: active = survival mostly below about 52% (no sharp cut-off); inactive = mostly above about 56%. Some of the results follow.

This assay deals with DeltatarO mutant. In words: S. aureus survival, RN4220 and DeltatarO strains – OD600, teichoic acid synthesis inhibitors, primary screen (AID 463173). The conditions noted are these: S. aureus RN4220 wild type/DeltatarO growth, OD600, 18 h, stronger effect = lower value, screened at 18.75 µg/mL (by protocol).
With `Cc1cc(C)c(Cn2c3ccccc3c3cnn(CC(=O)NCCc4ccccc4)c(=O)c32)c(C)c1`, the survival was inactive: 133%.
The same measure for `Cc1ccc(Cl)cc1N1CCN(C(=O)CN2C(=O)COc3ccc(S(=O)(=O)N4CCOCC4)cc32)CC1`: inactive: 80%; for `CCc1cccc(C)c1NS(=O)(=O)c1c(C(=O)N2CCCCCC2)c(C)n(C)c1C`: inactive: 101%; for `COc1ccc(Cl)cc1NC(=O)Cn1nnc2sc3c(c2c1=O)CCC(C(C)(C)C)C3` (configuration not stated): inactive: 56%.
For `CCOC(=O)c1c(Nc2cccc(O)c2)nnc(-c2ccccc2)c1-c1ccccc1`, the survival is active: 31%.
Next, `COc1ccc(C(=O)N(Cc2sccc2C)C2CCS(=O)(=O)C2)cc1Cl` (configuration not stated): inactive: 107%.
In the case of `Cc1cc(C)c(S(=O)(=O)Nc2cc(-c3cn4ccccc4n3)ccc2C)cc1C`, the survival was inactive: 56%.
Consider `CCN1CCN(C(=O)c2ccc3c(c2)N(Cc2ccc(Cl)cc2)C(=O)c2ccccc2S3(=O)=O)CC1`, for which the survival is inactive: 77%.
The same measure for `O=C(CCC(=O)c1ccccc1)Nc1cccnc1`: inactive: 83%; for `Cc1cc(=O)n2c(C(=O)Nc3ccc(C)c(Cl)c3)c(C(=O)Nc3ccccc3)sc2n1`: active: 56%; for `Cc1cccc(N2CCN(C(=O)C3CCN(S(=O)(=O)c4c(C)noc4/C=C/c4ccccc4F)CC3)CC2)c1C`: inactive: 85%.
As to `CC1(C)Cc2ccccc2/C(=C/C(=O)N2CCOCC2)N1`, the survival is inactive: 96%.
`O=C(NCc1ccc2c(c1)OCO2)c1ccc2c(c1)N(Cc1cccc(Cl)c1)C(=O)c1ccccc1S2`: the survival was inactive: 84%.
Regarding `Cc1ccc(NC(=O)Cn2cc(S(=O)(=O)c3ccc(F)cc3)c(=O)c3cc4c(cc32)OCO4)cc1`, the survival is inactive: 55%.
The same measure for `Cc1ccc(NC(=O)CSc2nccn2C2CCCC2)cc1`: inactive: 94%.
For `COc1cc(Cl)c(C)cc1NC(=O)CCCN1C(=O)C(c2ccccc2)Oc2cccnc21` (configuration not stated), the survival was inactive: 79%.
Next, `COCCNC(=O)Cn1c(=O)n(Cc2ccc(C(=O)NCCc3ccc(OC)c(OC)c3)cc2)c(=O)c2ccccc21`: inactive: 123%; `O=C(CSc1nc2ccccc2nc1Cc1ccc(F)cc1)Nc1ccc2c(c1)OCO2`: active: 52%; `Cc1cccc(Oc2nc3ccccn3c(=O)c2/C=C(\C#N)c2nc3ccccc3s2)c1C`: inactive: 65%.
The same measure for `COc1ccc(NC(=O)C2CCCN(S(=O)(=O)c3cn(C)cn3)C2)cc1Cl` (configuration not stated): inactive: 63%; for `CCOc1ccccc1C1CC(=O)NC(C)=C1C(=O)OC1CCCCCC1` (configuration not stated): inactive: 68%.
For the compound `COc1ccc(CCNC(=O)c2ccc3c(c2)CCN3S(=O)(=O)c2ccc(Cl)cc2)cc1`, the survival was inactive: 50%.
Next, `Cc1ccc(C)n1-c1cccc2cccnc12`: inactive: 53%.
Regarding `COc1ccccc1CCNC(=O)c1ccc(NC(=O)N2CC(C)Sc3ccccc32)cc1` (configuration not stated), the survival was inactive: 77%.
Take `CCCCn1cc(S(=O)(=O)c2ccc(CC)cc2)c(=O)c2cc(F)c(N3CCCC(C)C3)cc21` (configuration not stated): the survival is inactive: 115%.
Next, `COc1ccc(OC)c(NC(=O)c2ccc(-c3nc(CSc4ccccc4)c(C)o3)cc2)c1`: inactive: 88%.
On to `CC(C)(C)C(=O)Cn1c(=O)n(CCCCCC(=O)NCc2ccc3c(c2)OCO3)c(=O)c2sccc21`, for which the survival was inactive: 70%.
Next, `COc1ccc(C(=O)NCCn2cc(SCC(=O)Nc3ccccc3)c3ccccc32)cc1OC`: inactive: 67%; `O=C(Nc1ccccc1O)c1ccccn1`: inactive: 77%.
Take `COc1cc(OC)c(NC(=O)c2c(C)nn(-c3ccc(C)cc3)c2-n2cccc2)cc1Cl`: the survival is inactive: 78%.
Next, `CCCCn1c2ccc(F)cc2c2nnc(SCCN3CCCCC3)nc21`: inactive: 179%; `CC1=NN(c2ccccc2)C(=O)C1C(=O)O` (configuration not stated): inactive: 87%.
The same measure for `COc1ccc(S(=O)(=O)N2C3CCC2CC(NC(=O)C2CC2)C3)cc1` (configuration not stated): inactive: 94%; for `O=S(=O)(NCC(c1ccco1)S(=O)(=O)c1cccs1)c1ccc(F)c(C(F)(F)F)c1` (configuration not stated): active: 37%.
For `CCOC(=O)C1CCN(S(=O)(=O)c2cc(-c3onc(C)c3C)ccc2OC)CC1`, the survival is inactive: 76%.
`Cc1ccc(Cl)cc1N1CCN(C(=O)C2CCCN(S(=O)(=O)c3ccc(Br)s3)C2)CC1` (configuration not stated): the survival was inactive: 113%.
For `COc1ccccc1NC(=O)CCn1cnc2ccccc2c1=O`, the survival was inactive: 92%.
Take `Cc1cccc(C)c1NC(=O)C(C)Sc1n[nH]c(-c2ccncc2)n1` (configuration not stated): the survival was inactive: 76%.
The same measure for `Cc1ccc2nc(-c3ccc(Cl)c(NC(=O)c4cccnc4)c3)oc2c1`: inactive: 126%; for `CN(C(=O)c1cc2c(=O)oc3ccccc3c2s1)c1ccc(F)cc1`: inactive: 60%.
For `CCOc1ccc(NC(=O)CSc2nccn2-c2cccc(C)c2C)cc1`, the survival is inactive: 124%.
For the compound `CCOc1ccccc1CNC(=O)c1cc2c(=O)n(Cc3ccccc3)ccc2nc1C`, the survival is inactive: 90%.
On to `CC(=O)N1CCCc2cc(S(=O)(=O)N3CCCCC3)ccc21`, for which the survival is active: 47%.
`CC1CN(S(=O)(=O)c2cccs2)C(C)CN1S(=O)(=O)c1cccs1` (configuration not stated): the survival was inactive: 91%.
The same measure for `COCCCNC(=O)CCn1c(=O)c2ccccc2n(CC(=O)Nc2c(C)cc(C)cc2C)c1=O`: inactive: 91%.
On to `Cc1cccn2c(Nc3ccccc3)c(-c3ccc(N4CCOCC4)cc3)nc12`, for which the survival is inactive: 113%.
The same measure for `Cc1ccc(-n2c(=O)c3cccnc3n2CC(=O)Nc2cccc(C)c2C)cc1`: inactive: 125%.
Next, `CC(C)c1ccc(OC(=O)c2cc(-c3ccc4c(c3)OCCO4)on2)cc1`: active: 8%; `Cc1ccc(CNC(=O)c2nc(SCc3ccc(C)cc3)ncc2Cl)cc1`: inactive: 99%; `COc1ccc(CNC(=O)c2ccc3c(c2)N(Cc2cccc(Cl)c2)C(=O)c2ccccc2S3)c(OC)c1`: inactive: 83%.
Turning to `CCc1ccccc1NC(=O)Cn1c(=O)c2cccn2c2ccc(F)cc21`, the survival was inactive: 83%.
Take `CC(C)c1ccc(NC(=O)CSC2=Nc3ccccc3C3=NC(CC(=O)NCc4ccc(F)cc4)C(=O)N23)cc1` (configuration not stated): the survival is inactive: 77%.
For the compound `COc1cccc(N2CCN(C(=O)c3cccc(NC(=O)c4nsc5ccccc45)c3)CC2)c1`, the survival is inactive: 89%.
The same measure for `Cc1sc2c(c1C)c(=O)n(CCc1ccccc1)c(=O)n2Cc1ccccc1Cl`: inactive: 103%.
As to `COc1cc(CN(C(=O)c2ccccc2[N+](=O)[O-])c2ccccn2)cc(OC)c1OC`, the survival was inactive: 78%.
As for `CCn1c(=O)c2cc(C(=O)N3CCN(c4cccc(Cl)c4)CC3)sc2c2ccccc21`, the survival was inactive: 62%.
Next, `CCC(=O)N1CCNC(=O)C1CC(=O)OC` (configuration not stated): inactive: 87%; `CCN(CC)S(=O)(=O)c1ccc2c(c1)nc(CN(C)C(=O)c1cccc(Cl)c1)n2C`: inactive: 71%; `COc1ccc(CCNC(=O)C2=C(C)C(=O)OC23CCCCC3)c(OC)c1OC`: inactive: 84%.
Turning to `CC1CCN(S(=O)(=O)c2ccc3c(c2)N(CC(=O)NCCCN2CCCCC2C)C(=O)CS3)CC1` (configuration not stated), the survival was inactive: 96%.
On to `N#Cc1ccccc1NC(=O)c1cc2c(=O)n3ccccc3nc2s1`, for which the survival is inactive: 64%.
The same measure for `O=C(Oc1ccc(N(Cc2ccco2)C(=O)Cn2cnc3ccccc3c2=O)cc1)c1ccccc1F`: inactive: 71%; for `CCOc1ccc(C(=O)Nc2nnc(SCc3cc(=O)c4cc(C)ccc4[nH]3)s2)cc1`: inactive: 91%; for `NC(=O)Cn1cc(F)c(=O)[nH]c1=O`: inactive: 87%.
Take `COc1cccc2sc(N(Cc3cccnc3)C(=O)COc3ccccc3)nc12`: the survival was inactive: 62%.
Turning to `Cc1nn(-c2ccccc2)c(OC(=O)c2ccccc2F)c1S(=O)(=O)c1ccccc1`, the survival is inactive: 89%.
Next, `CCC1CN(S(=O)(=O)c2cc(-c3cc(C)no3)ccc2OC)c2cc(C)ccc2O1` (configuration not stated): inactive: 109%; `O=C(O)CN1C(=O)c2ccc(Br)cc2C1=O`: inactive: 102%; `COc1ccc(OC)c(CNC(=O)C2CCN(S(=O)(=O)c3cn(C)cn3)CC2)c1`: inactive: 83%.
As for `COc1cc(Cl)c(C)cc1NC(=O)c1cc(CN2CCOCC2)on1`, the survival was inactive: 65%.
Consider `CN(C(=O)COc1ccccc1)c1nc(-c2ccccc2)cs1`, for which the survival is inactive: 80%.
For the compound `CCN=C1SC(C(=O)Nc2ccc(Br)cc2)CC(=O)N1CC` (configuration not stated), the survival was inactive: 85%.
In the case of `Cc1cc(NC(=O)c2ccc3c(c2)N(Cc2cccc(Cl)c2)C(=O)c2ccccc2S3=O)ccc1Br` (configuration not stated), the survival was inactive: 87%.
The same measure for `CCc1ccccc1NC(=O)Nc1cc(C(=O)NCc2ccc(C(C)C)cc2)ccc1N1CCCC1`: inactive: 135%.
`CC1CCCN(Cc2c(O)ccc3c(=O)c(Oc4ccccc4Cl)c(C(F)(F)F)oc23)C1` (configuration not stated): the survival is inactive: 88%.
Consider `Cc1ccc(S(=O)(=O)c2cn(Cc3ccccc3F)c3cc4c(cc3c2=O)OCO4)cc1`, for which the survival is inactive: 88%.
On to `CCc1ccc(Oc2nc3c(C)cccn3c(=O)c2/C=C(\C#N)c2nc3ccccc3[nH]2)cc1`, for which the survival is inactive: 81%.
For `Cc1cccc(C(=O)NCC(c2ccc3c(c2)OCO3)N2CCN(c3ccccc3F)CC2)c1` (configuration not stated), the survival is inactive: 71%.
For `COc1cc(-c2noc(CSc3nc(-c4ccccc4)cc(=O)[nH]3)n2)cc(OC)c1OC`, the survival was inactive: 75%.
Take `COc1ccc(NC(=O)c2sc3nc4c(cc3c2N)CN(C(C)C)CC4)c(OC)c1`: the survival is inactive: 63%.
In the case of `Cc1cc(=O)n2[nH]c(NCc3ccc(F)cc3)nc2n1`, the survival was inactive: 102%.
The same measure for `COc1ccc(S(=O)(=O)c2c(Nc3ccc(C)cc3)sc(C(=O)c3ccc(C)cc3)c2N)cc1`: inactive: 105%.
Take `Cc1ccc(-n2nc(C)c3c(C)cc(=O)n(CC(=O)Nc4ccc(Br)cc4F)c32)cc1`: the survival is inactive: 116%.
Take `COc1ccc(-c2ccc(CNc3ccc4[nH]c(=O)[nH]c4c3)o2)cc1Cl`: the survival is inactive: 55%.
The same measure for `Cc1nn(CC(=O)NC2CCCCC2)c(=O)c2cc3cc(F)ccc3n12`: inactive: 93%; for `Cc1ccc(CSCC(=O)NCc2ccc(F)cc2)cc1`: inactive: 92%.
Next, `CCOc1ccccc1Nc1nc(-c2cccc(Cl)c2)c2c(n1)-c1ccccc1OC2`: inactive: 61%.
